Reference: paper PMC11914695
Results are given in words; binding and its absence hold for the method and conditions named. In cells and extracts the contact can be indirect. Some binding calls cover weakened binding; strength is not graded here.

Protein sequences, listed by entry. Tags and fused reporters are not part of them. Lines headed by an entry give the natural chain unless they say otherwise; changes in a name come on top. Chains listed by the source or under a name are the forms on record and can include a tag or linker. Residues count along the entry.
UniProt P54274: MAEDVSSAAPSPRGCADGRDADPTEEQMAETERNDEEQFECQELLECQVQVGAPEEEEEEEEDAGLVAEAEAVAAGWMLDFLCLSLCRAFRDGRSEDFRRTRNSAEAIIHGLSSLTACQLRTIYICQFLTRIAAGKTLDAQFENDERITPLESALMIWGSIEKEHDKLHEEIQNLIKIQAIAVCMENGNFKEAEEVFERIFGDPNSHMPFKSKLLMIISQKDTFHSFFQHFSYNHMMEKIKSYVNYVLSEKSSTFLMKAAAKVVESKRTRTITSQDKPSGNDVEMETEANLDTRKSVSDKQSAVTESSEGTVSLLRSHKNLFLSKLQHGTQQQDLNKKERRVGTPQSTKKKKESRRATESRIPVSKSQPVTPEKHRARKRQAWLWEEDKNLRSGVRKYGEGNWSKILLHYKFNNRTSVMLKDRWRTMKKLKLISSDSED
Flag-TRF1^shR-ΔHD (P54274, form named): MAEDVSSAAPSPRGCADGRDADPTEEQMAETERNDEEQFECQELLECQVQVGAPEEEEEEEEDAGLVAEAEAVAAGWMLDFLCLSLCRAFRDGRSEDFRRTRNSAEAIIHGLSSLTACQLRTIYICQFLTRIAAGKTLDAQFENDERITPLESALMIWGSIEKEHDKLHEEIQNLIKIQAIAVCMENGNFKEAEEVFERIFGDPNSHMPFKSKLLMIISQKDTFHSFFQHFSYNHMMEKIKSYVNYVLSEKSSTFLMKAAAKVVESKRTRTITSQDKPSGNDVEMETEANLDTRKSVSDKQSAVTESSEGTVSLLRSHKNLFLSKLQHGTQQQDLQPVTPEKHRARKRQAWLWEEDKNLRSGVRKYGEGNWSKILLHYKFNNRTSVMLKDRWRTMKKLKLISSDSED
Flag-TRF1^shR-2A (P54274, form named): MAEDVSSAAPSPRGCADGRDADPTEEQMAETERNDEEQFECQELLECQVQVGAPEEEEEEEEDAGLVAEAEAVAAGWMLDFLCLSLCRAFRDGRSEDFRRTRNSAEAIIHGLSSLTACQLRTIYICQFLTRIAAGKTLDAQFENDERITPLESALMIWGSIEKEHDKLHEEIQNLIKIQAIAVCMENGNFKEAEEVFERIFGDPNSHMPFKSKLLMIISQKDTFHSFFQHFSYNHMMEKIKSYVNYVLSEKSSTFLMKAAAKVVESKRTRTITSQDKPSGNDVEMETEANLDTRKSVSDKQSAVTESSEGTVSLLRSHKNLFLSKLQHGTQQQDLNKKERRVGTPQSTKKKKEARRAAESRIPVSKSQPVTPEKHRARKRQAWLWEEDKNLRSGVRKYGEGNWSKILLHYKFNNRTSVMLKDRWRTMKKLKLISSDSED
Flag-TRF1^shR-2D (P54274, form named): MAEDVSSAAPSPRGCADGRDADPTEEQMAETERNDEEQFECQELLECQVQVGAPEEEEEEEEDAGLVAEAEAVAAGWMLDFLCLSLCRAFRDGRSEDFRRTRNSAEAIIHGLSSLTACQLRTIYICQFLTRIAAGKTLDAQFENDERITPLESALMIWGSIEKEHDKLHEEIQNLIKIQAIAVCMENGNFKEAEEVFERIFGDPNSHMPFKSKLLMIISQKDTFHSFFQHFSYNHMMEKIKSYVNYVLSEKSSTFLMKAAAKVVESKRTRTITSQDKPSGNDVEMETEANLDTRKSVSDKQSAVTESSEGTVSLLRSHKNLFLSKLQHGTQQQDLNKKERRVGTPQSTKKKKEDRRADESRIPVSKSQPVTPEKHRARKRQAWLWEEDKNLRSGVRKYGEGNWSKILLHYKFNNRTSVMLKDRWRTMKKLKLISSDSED
UniProt Q15554, residues 43-542: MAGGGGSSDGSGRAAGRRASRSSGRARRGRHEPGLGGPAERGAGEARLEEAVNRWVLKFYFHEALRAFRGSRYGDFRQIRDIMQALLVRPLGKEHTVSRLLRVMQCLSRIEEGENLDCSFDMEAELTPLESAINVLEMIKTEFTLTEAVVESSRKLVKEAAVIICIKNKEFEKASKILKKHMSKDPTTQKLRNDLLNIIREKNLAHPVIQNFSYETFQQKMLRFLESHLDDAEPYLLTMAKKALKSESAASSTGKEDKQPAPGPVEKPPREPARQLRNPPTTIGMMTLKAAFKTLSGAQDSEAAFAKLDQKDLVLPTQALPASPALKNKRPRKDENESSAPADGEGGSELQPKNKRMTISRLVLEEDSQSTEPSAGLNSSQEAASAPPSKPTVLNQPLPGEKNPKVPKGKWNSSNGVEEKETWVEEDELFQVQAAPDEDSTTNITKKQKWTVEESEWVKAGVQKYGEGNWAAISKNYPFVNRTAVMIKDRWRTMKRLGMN
UniProt O15392: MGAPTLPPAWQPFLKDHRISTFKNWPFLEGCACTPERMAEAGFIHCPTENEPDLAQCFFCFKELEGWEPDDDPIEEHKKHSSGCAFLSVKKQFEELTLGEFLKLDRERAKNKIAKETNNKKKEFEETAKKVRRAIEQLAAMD
UniProt P54132: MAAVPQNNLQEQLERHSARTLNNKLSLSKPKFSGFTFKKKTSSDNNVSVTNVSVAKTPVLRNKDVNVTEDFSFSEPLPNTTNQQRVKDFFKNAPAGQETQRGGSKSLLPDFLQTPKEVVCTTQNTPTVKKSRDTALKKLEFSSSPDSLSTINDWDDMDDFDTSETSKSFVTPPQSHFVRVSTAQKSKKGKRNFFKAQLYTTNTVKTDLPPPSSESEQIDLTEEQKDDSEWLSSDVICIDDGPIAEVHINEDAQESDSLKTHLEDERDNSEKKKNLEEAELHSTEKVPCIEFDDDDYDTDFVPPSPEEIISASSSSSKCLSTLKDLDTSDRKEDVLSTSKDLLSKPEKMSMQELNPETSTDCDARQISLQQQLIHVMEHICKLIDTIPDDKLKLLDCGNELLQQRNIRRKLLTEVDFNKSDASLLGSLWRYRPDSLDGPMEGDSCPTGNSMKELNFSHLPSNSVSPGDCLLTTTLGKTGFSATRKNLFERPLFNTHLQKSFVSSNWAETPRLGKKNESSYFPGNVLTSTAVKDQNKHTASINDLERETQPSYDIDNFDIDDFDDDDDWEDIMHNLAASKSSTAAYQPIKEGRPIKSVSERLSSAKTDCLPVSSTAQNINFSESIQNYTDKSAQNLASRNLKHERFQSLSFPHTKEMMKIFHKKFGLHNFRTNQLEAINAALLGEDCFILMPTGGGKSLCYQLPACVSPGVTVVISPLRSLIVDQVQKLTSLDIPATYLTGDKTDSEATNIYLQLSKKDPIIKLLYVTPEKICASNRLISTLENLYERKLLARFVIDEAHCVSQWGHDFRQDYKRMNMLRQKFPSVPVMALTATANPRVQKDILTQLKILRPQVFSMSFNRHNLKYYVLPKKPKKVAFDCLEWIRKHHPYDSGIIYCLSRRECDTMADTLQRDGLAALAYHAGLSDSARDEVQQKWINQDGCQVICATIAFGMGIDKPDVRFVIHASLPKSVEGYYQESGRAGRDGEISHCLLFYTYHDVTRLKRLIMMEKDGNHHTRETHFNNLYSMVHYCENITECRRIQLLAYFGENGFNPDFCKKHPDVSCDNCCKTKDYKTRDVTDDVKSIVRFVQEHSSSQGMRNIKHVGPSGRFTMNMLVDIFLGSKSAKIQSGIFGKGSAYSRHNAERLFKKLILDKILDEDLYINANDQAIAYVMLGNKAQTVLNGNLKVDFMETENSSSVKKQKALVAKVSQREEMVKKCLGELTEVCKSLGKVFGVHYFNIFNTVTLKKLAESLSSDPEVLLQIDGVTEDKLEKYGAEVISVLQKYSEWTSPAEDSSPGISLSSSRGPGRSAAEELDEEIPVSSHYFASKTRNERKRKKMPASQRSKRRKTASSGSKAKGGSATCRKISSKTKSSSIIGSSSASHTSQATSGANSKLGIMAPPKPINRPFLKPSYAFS
UniProt Q96GD4: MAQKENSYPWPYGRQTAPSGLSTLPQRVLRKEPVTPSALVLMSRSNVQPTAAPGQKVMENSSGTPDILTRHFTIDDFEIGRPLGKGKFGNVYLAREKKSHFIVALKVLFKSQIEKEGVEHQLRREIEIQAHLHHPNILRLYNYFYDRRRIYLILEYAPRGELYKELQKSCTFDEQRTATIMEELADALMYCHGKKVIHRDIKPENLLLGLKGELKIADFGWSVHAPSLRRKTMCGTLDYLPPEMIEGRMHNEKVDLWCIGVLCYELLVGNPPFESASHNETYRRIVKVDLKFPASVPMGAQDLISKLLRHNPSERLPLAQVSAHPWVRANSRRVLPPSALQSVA
UniProt Q9NQS7: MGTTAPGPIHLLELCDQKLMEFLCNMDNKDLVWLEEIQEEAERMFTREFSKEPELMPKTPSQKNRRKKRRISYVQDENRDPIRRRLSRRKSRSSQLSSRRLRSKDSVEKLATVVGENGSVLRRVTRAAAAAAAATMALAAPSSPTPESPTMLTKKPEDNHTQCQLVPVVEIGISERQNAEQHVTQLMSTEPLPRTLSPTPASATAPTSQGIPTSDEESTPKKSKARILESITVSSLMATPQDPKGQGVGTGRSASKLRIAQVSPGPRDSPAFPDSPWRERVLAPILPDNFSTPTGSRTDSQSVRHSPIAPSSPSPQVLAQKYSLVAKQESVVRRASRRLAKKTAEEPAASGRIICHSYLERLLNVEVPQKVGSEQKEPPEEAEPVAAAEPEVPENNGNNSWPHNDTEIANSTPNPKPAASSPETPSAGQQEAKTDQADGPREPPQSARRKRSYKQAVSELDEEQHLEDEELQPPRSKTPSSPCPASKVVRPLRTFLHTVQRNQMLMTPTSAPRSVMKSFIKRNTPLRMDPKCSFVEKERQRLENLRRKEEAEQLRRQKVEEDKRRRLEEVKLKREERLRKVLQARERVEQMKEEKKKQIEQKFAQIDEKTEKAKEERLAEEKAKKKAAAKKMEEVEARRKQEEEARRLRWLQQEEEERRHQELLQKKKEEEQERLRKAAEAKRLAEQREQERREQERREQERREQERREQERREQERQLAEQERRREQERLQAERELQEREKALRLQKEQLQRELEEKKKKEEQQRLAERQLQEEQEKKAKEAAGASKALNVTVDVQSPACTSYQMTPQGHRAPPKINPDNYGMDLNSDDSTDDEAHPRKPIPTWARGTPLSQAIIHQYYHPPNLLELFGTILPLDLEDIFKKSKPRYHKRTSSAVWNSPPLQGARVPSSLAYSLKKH

Key:
[1] = biological target: TRF1 (endogenous) (human (endogenous in HT1080 6TG)) (UniProt P54274); test: condition: only asynchronous cultures (no nocodazole); co-IP; endogenous TRF1 immunoprecipitated from asynchronous HT1080 6TG (no nocodazole); immunoblots
[2] = biological target: TRF1 (endogenous) (human (endogenous in HT1080 6TG)) (UniProt P54274); test: co-IP; endogenous TRF1 immunoprecipitated from HT1080 6TG treated 16 h with 150 ng/mL nocodazole (mitotic arrest); immunoblots
[3] = biological target: Flag-TRF1^shR-ΔHD (human) (UniProt P54274); test: co-IP; anti-Flag immunoprecipitation from TRF1 shRNA HT1080 6TG expressing Flag-TRF1 alleles, thymidine block and release into 150 ng/mL nocodazole for 16 h; immunoblots
[4] = biological target: Flag-TRF1^shR-2A (human) (UniProt P54274); test: as above
[5] = biological target: Flag-TRF1^shR-2D (human) (UniProt P54274); test: as above
[6] = biological target: Flag-TRF1^shR-WT (human) (UniProt P54274); test: as above
[7] = biological target: Myc-TRF2 (human) (UniProt Q15554); test: co-IP; Flag-TRF1 or Myc-TRF2 immunoprecipitated from extracts of mitotically arrested HT1080 6TG, extracts treated with Benzonase (50 U/mL, on ice) before the co-IP; immunoblots
[8] = biological target: Flag-TRF1^shR-WT (human) (UniProt P54274); test: as above

Survivin (from UniProt O15392 1-142)
binding [1]: no binding | binding [2]: binds | binding [3]: no binding | binding [4]: no binding | binding [5]: binds | binding [6]: binds

BLM (from UniProt P54132 1-1417) (enzyme)
binding [1]: no binding | binding [2]: binds | binding [3]: binds | binding [4]: binds | binding [5]: binds | binding [6]: binds | binding [7]: binds | binding [8]: binds

Aurora Kinase B (from UniProt Q96GD4 1-344) (enzyme)
binding [1]: no binding | binding [2]: binds | binding [3]: no binding | binding [4]: no binding | binding [5]: binds | binding [6]: binds | binding [7]: binds | binding [8]: binds

INCENP (from UniProt Q9NQS7 1-918)
binding [3]: no binding | binding [4]: no binding | binding [5]: binds

B1: TOP3A (enzyme, UniProt Q13472 1-1001)
chain: MIFPVARYALRWLRRPEDRAFSRAAMEMALRGVRKVLCVAEKNDAAKGIADLLSNGRMRRREGLSKFNKIYEFDYHLYGQNVTMVMTSVSGHLLAHDFQMQFRKWQSCNPLVLFEAEIEKYCPENFVDIKKTLERETRQCQALVIWTDCDREGENIGFEIIHVCKAVKPNLQVLRARFSEITPHAVRTACENLTEPDQRVSDAVDVRQELDLRIGAAFTRFQTLRLQRIFPEVLAEQLISYGSCQFPTLGFVVERFKAIQAFVPEIFHRIKVTHDHKDGIVEFNWKRHRLFNHTACLVLYQLCVEDPMATVVEVRSKPKSKWRPQALDTVELEKLASRKLRINAKETMRIAEKLYTQGYISYPRTETNIFPRDLNLTVLVEQQTPDPRWGAFAQSILERGGPTPRNGNKSDQAHPPIHPTKYTNNLQGDEQRLYEFIVRHFLACCSQDAQGQETTVEIDIAQERFVAHGLMILARNYLDVYPYDHWSDKILPVYEQGSHFQPSTVEMVDGETSPPKLLTEADLIALMEKHGIGTDATHAEHIETIKARMYVGLTPDKRFLPGHLGMGLVEGYDSMGYEMSKPDLRAELEADLKLICDGKKDKFVVLRQQVQKYKQVFIEAVAKAKKLDEALAQYFGNGTELAQQEDIYPAMPEPIRKCPQCNKDMVLKTKKNGGFYLSCMGFPECRSAVWLPDSVLEASRDSSVCPVCQPHPVYRLKLKFKRGSLPPTMPLEFVCCIGGCDDTLREILDLRFSGGPPRASQPSGRLQANQSLNRMDNSQHPQPADSRQTGSSKALAQTLPPPTAAGESNSVTCNCGQEAVLLTVRKEGPNRGRQFFKCNGGSCNFFLWADSPNPGAGGPPALAYRPLGASLGCPPGPGIHLGGFGNPGDGSGSGTSCLCSQPSVTRTVQKDGPNKGRQFHTCAKPREQQCGFFQWVDENTAPGTSGAPSWTGDRGRTLESEARSKRPRASSSDMGSTAKKPRKCSLCHQPGHTRPFCPQNR
binding [3]: binds | binding [4]: binds | binding [5]: binds | binding [6]: binds
